About 220 (0.56%) of roughly 39,000 compounds showed activity. This is one part of the list.
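Also: static incubation at 37 °C against the wild-type strain, values averaged over two biological replicates.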

The test system of the experiment is Escherichia coli K-12 BW25113. Kind of experiment: relative growth (OD600 normalised to plate interquartile mean) (fraction); higher = less growth inhibition, active = 0.2 or less. To be noted: 50 µM; LB; incubation time: overnight (16-24 h).
For the compound `Cc1noc(C)c1NC(=O)N(C)C[C@H]1Oc2ccc(NS(=O)(=O)c3ccccc3)cc2CC(=O)N([C@H](C)CO)C[C@H]1C`, the relative growth was inactive: 0.987.

On to `C[C@@H]1CN([C@H](C)CO)C(=O)Cc2cc(NS(=O)(=O)c3cn(C)cn3)ccc2O[C@@H]1CN(C)Cc1ccc(C(=O)Nc2ccccc2N)cc1`, for which the relative growth was inactive: 1.01. On to `CO[C@H]1CN(C)C(=O)c2cc(NS(=O)(=O)CC(F)(F)F)ccc2OC[C@H](C)N(C(=O)NC(C)C)C[C@H]1C`, for which the relative growth is inactive: 1.

For the compound `C[C@@H]1CN([C@H](C)CO)C(=O)c2cc(NC(=O)Nc3ccc4c(c3)OCO4)ccc2O[C@@H](C)CCCCO[C@H]1CN(C)S(=O)(=O)c1ccc(F)cc1`, the relative growth was inactive: 0.998. To `CC(=O)OC1CCC2(C)C(CCC3C2CC(=O)C2(C)C3CC3OC4(CCC(C)CO4)C(C)C32)C1` (centres undefined) belongs inactive: 0.982; to `COc1ccc(NC(=O)Nc2ccc3c(c2)C(=O)N([C@H](C)CO)C[C@H](C)[C@H](CN(C)C(=O)Nc2ccc4c(c2)OCO4)OCCCC[C@H](C)O3)cc1`, inactive: 1.04. As to `C[C@@H]1CN([C@@H](C)CO)C(=O)c2c(c3ccccc3n2C)-c2ccccc2CO[C@@H]1CN(C)Cc1ccc2c(c1)OCCN2C`, the relative growth is inactive: 1.02.

Take `CSc1ccc2c(c1)N(CCC1CCCCN1C)c1ccccc1S2.Cl` (centres undefined): the relative growth is inactive: 1. For the compound `CCN1CCN(c2ccc(Nc3cc(N(C)C(=O)Nc4c(Cl)c(OC)cc(OC)c4Cl)ncn3)cc2)CC1`, the relative growth is inactive: 0.975. As for `CNC(=O)C(=O)NC[C@H]1OCCN1S(=O)(=O)c1ccccc1`, the relative growth was inactive: 1. To `C[C@@H]1CN([C@H](C)CO)C(=O)c2cc(C#CCN(C)C)cnc2O[C@H]1CN(C)Cc1cccc(C(=O)O)c1` belongs inactive: 1.02. With `C[C@@H]1CN([C@H](C)CO)C(=O)c2cc(C#C[C@@H](C)O)cnc2O[C@@H]1CN(C)C(=O)CN1CCOCC1`, the relative growth is inactive: 1.01. `O=C(NCC[C@@H]1CC[C@@H](NS(=O)(=O)c2cccc(F)c2)[C@H](CO)O1)C1CC1`: the relative growth was inactive: 0.992.

Consider `C[C@@H]1CN([C@@H](C)CO)C(=O)c2cc(-c3ccncc3)cnc2O[C@H]1CN(C)Cc1ccc(Oc2ccccc2)cc1`, for which the relative growth is inactive: 0.997. Consider `COC(=O)C(CC#Cc1ccc2c(c1)[C@]1(C(=O)N2)[C@H](c2ccc(OCCO)cc2)N2[C@H](c3ccccc3)[C@H](c3ccccc3)OC(=O)[C@H]2[C@@H]1C(=O)Nc1nc2ccccc2s1)C(=O)OC`, for which the relative growth is inactive: 1. To `Oc1ccc(C2Oc3cc(O)cc(O)c3CC2O)cc1` (centres undefined) belongs inactive: 1.04.

Turning to `C[C@H](CO)N1C[C@H](C)[C@H](CN(C)CC2CCCCC2)Oc2c(NC(=O)Nc3ccc(F)cc3)cccc2C1=O`, the relative growth is inactive: 0.961. On to `Cc1noc(C)c1NC(=O)N(C)C[C@@H]1OCCCC[C@H](C)Oc2ccc(NS(=O)(=O)c3cccs3)cc2C(=O)N([C@@H](C)CO)C[C@H]1C`, for which the relative growth is inactive: 1.01. On to `Clc1ccc(Cn2cccc2)cn1`, for which the relative growth is inactive: 0.992. As to `CCC(=O)NCCC1CCc2ccc3c(c21)CCO3` (centres undefined), the relative growth was inactive: 1.09. Consider `C[C@H]1CCCCO[C@H](CN(C)C(=O)Cc2ccccc2)[C@@H](C)CN([C@@H](C)CO)C(=O)c2cc(NC(=O)Nc3ccc(F)cc3)ccc2O1`, for which the relative growth was inactive: 1.04. Consider `CC(=O)Nc1ccc(C(=O)O)cc1`, for which the relative growth is inactive: 1.02. `COc1ccccc1-c1ccc2c(c1)O[C@H](CN(C)C(=O)c1cccnc1)[C@@H](C)CN([C@@H](C)CO)S2(=O)=O`: the relative growth was inactive: 0.915. The figure for `C[C@H]1CN([C@@H](C)CO)C(=O)c2cccc(NS(=O)(=O)c3ccc(Cl)cc3)c2O[C@H]1CN(C)C(=O)Nc1ccc(C(F)(F)F)cc1` is inactive: 1.01; for `C[C@@H]1CCCCO[C@H](CN(C)Cc2ccccc2)[C@@H](C)CN([C@H](C)CO)C(=O)c2cc(NC(=O)Cc3ccccc3)ccc2O1` it is inactive: 1.03. In the case of `N[C@H](CCC(=O)NCC(=O)O)C(=O)O`, the relative growth is inactive: 1.02.

Regarding `C[C@@H]1CCCCO[C@H](CN(C)Cc2ccc(C(F)(F)F)cc2)[C@H](C)CN([C@@H](C)CO)C(=O)c2cc(NC(=O)Nc3ccc(F)cc3)ccc2O1`, the relative growth is inactive: 1.04. Regarding `C[C@@H]1CCCCO[C@H](CN(C)S(=O)(=O)c2ccc(F)cc2)[C@H](C)CN([C@H](C)CO)C(=O)c2cc(NC(=O)NC3CCCCC3)ccc2O1`, the relative growth was inactive: 1. Turning to `C[C@@H](CO)N1C(=O)[C@@H]2[C@H]3C(=O)OCCC=C[C@H]3O[C@]23C=CCN(CCN2CCOCC2)C(=O)[C@@H]13`, the relative growth is inactive: 0.989.

In the case of `C[C@H](CO)N1C[C@H](C)[C@H](CN(C)C(=O)Nc2ccc3c(c2)OCO3)Oc2ncc(C#CC(C)(C)O)cc2C1=O`, the relative growth was inactive: 0.983. To `CCCNS(=O)(=O)c1c[nH]c(C(=O)OC)c1` belongs inactive: 1.03; to `COc1ccccc1-c1ccc2c(c1)O[C@H](CN(C)C(=O)c1ccncc1)[C@@H](C)CN([C@H](C)CO)S2(=O)=O`, inactive: 1.01; to `C[C@H]1CCCCO[C@H](CN(C)Cc2ccc(C(F)(F)F)cc2)[C@@H](C)CN([C@@H](C)CO)C(=O)c2cc(NC(=O)CCCN(C)C)ccc2O1`, inactive: 0.982. For the compound `O=C1c2ccccc2[C@@]2(Cc3ccccc3N(CCN3CCOCC3)C2=O)[C@H](c2ccc(CO)cc2)N1Cc1ccccc1Cl`, the relative growth is inactive: 0.994. As for `CCOC(=O)CCCCCC(=O)Nc1ccc2c(c1)C(=O)N([C@@H](C)CO)C[C@@H](C)[C@H](CN(C)C(=O)Nc1ccccc1)OCCCC[C@H](C)O2`, the relative growth is inactive: 1.04. For the compound `C[C@H]1CN([C@@H](C)CO)C(=O)c2cc(NC(=O)Nc3ccc(C(F)(F)F)cc3)ccc2O[C@H]1CN(C)Cc1ccc(C(=O)Nc2ccccc2N)cc1`, the relative growth is inactive: 1.02.

As for `C[C@H](CO)N1C[C@H](C)[C@H](CN(C)C(=O)Nc2ccc(C(F)(F)F)cc2)Oc2ccc(NC(=O)C3CCCCC3)cc2C1=O`, the relative growth was inactive: 0.983. Consider `C[C@@H]1CN([C@@H](C)CO)C(=O)c2cc(NC(=O)Nc3ccc(F)cc3)ccc2O[C@@H]1CN(C)CC1CCCCC1`, for which the relative growth was inactive: 0.989. In the case of `CC(C)NC(=O)N(C)C[C@H]1Oc2c(NC(=O)Nc3ccc4c(c3)OCO4)cccc2C(=O)N([C@H](C)CO)C[C@H]1C`, the relative growth was inactive: 0.98.

(Values after the supplement of paper PMC9446081.)
